# Where “and” joins values, the source holds several entries; their conditions need not be identical. Identical values can stand only once. About 4,000 (1%) of roughly 390,000 compounds were called active. Inconclusive means that the source gave no clear call. Such entries were picked first, then a sample of the others. The call rests on the fitted dose curve; in most records, active means well fitted inhibition curve with a large enough effect; inconclusive means small, poorly fitted or top-dose-only effect; inactive means no such curve, though single readings can be large or run the other way. Where the call is inconclusive, the potency comes from a doubtful curve fit.
# Target: Thioredoxin reductase 1, cytoplasmic (Rattus norvegicus) (UniProt O89049)
# Assay: qHTS Assay for Inhibitors of Mammalian Selenoprotein Thioredoxin Reductase 1 (TrxR1): qHTS; further: nearly all actives have a fitted effect of over 65% in size
# Details: recombinant rTrxR1, NADPH fluorescence consumption, selenite substrate; series mostly up to 114 µM
# Outline: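 Rat TrxR1 (90 nM in the dispensed reagent) was pre-reduced with 400 uM NADPH for 5 min at room temperature, then incubated with compound for 15 min. After 400 uM selenite was added, NADPH fluorescence (Ex 340/Em 450 nm) was followed for 8 min.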
# Potency means the concentration at half of the fitted maximal effect; tags describe the fitted curve by direction and shape.
# UniProt O89049, sequence (O89049 whole entry, looked up): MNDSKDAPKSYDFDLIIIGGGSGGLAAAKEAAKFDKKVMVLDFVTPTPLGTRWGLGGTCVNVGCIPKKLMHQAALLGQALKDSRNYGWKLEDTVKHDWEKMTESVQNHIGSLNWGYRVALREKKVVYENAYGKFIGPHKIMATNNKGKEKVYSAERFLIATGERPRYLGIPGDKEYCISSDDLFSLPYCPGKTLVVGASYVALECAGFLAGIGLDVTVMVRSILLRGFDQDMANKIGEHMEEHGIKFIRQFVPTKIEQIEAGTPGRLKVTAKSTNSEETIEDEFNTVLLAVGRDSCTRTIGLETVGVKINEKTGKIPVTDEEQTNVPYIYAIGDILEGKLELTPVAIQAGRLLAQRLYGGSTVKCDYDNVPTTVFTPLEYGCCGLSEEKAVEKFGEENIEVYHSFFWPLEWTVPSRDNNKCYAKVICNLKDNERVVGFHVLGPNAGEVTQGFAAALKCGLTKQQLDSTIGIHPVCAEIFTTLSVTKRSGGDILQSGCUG
row,SMILES,Potency
1,CC1CC(C)CN(S(=O)(=O)N2CCCC(C(=O)NC(C)c3ccccc3)C2)C1 (centres undefined),"inconclusive: 11.2 µM [inhibitor, full curve]"
2,Cn1nnnc1Sc1ncnc2scc(-c3ccccc3C(F)(F)F)c12,"inconclusive: 25.1 µM [inhibitor, partial curve, poor fit]"
3,CC(C)C(=O)NC(NC(=S)Nc1ccc(S(N)(=O)=O)cc1)C(Cl)(Cl)Cl (centres undefined),"inconclusive: 28.2 µM [inhibitor, partial curve, poor fit]"
4,Cc1ccc(CNC(=O)C2CC(c3cccc([N+](=O)[O-])c3)=NO2)o1 (centres undefined),"inconclusive: 56.2 µM [inhibitor, partial curve]"
5,CN(c1ccc(Cl)cc1)S(=O)(=O)c1nnc(NC(=O)c2ccco2)s1,"inconclusive: 44.7 µM [inhibitor, partial curve]"
6,c1coc(-c2nnc(-c3ccco3)nn2)c1,"inconclusive: 12.6 µM [inhibitor, partial curve]"
7,CN(CCOc1ccc(Cl)cc1)C(=O)c1cc(-c2ccco2)nc2ccccc12,"inconclusive: 31.6 µM [inhibitor, partial curve]"
8,O=C(NCCc1ccccc1)c1ccc(-c2ccccc2Cl)o1,"inconclusive: 50.1 µM [inhibitor, partial curve, poor fit]"
9,CCc1c(C(C)S(=O)(=O)c2ccc(C)cc2)[nH]c(=O)n1-c1ccc(OC(F)(F)F)cc1 (centres undefined),"inconclusive: 11.2 µM [inhibitor, partial curve, poor fit]"
10,CC(C)CCn1c(=O)c2sccc2n2c(CCCC(=O)Nc3ccc(F)c(Cl)c3)nnc12,inactive
11,O=[N+]([O-])c1cc(S(=O)(=O)Oc2ccccc2)ccc1Cl,"inconclusive: 2.24 µM [inhibitor, partial curve, poor fit]"
12,COc1ccccc1/C=C(\C#N)C(=O)NCC1CCCO1 (centres undefined),"inconclusive: 70.8 µM [inhibitor, partial curve]"
13,CCOc1ccc(NC(=S)NS(=O)(=O)c2cc(Br)ccc2OCC)cc1,"inconclusive: 15.8 µM [inhibitor, partial curve, poor fit]"
14,CCOC(=O)C1=CN(Cc2ccco2)S(=O)(=O)N(C)C1c1ccc(C(F)(F)F)cc1 (centres undefined),"inconclusive: 56.2 µM [inhibitor, partial curve]"
15,O=C(c1cc(O)c(O)c([N+](=O)[O-])c1)c1ccccc1F,"inconclusive: 89.1 µM [inhibitor, single point] and inconclusive: 13.4 µM [inhibitor, partial curve]"
16,CC(NC(=O)c1ccco1)C1COc2ccccc2O1 (centres undefined),"inconclusive: 70.8 µM [inhibitor, partial curve]"
17,COc1ccccc1NC(=O)CSc1nc(-c2cccc(Cl)c2)nc2c1Cc1c(CO)cnc(C)c1O2,"inconclusive: 79.4 µM [inhibitor, partial curve, poor fit]"
18,Cc1sc2c(c1C)C(O)=C(C(=O)Nc1ccccc1)S(=O)(=O)N2C,"inconclusive: 10 µM [inhibitor, partial curve]"
19,CSc1ccc(-c2sc(Nc3ccccc3)n[n+]2-c2ccccc2)cc1,inactive
20,O=C(Nc1ccccc1N1CCCCC1)c1ccc([N+](=O)[O-])o1,"inconclusive: 44.7 µM [inhibitor, single point]"
21,O=C(O)CSCc1ccc(Cl)cc1,"inconclusive: 39.8 µM [inhibitor, partial curve, poor fit]"
22,COc1ccc(-c2noc(CSc3nnc(C)n3-c3ccc(C)cc3)n2)cc1,inactive

row,SMILES,Potency
1,CCc1ccccc1NC(=O)C1CCCN1S(=O)(=O)c1ccc(-c2ccc(=O)[nH]n2)s1 (centres undefined),"inconclusive: 89.1 µM [inhibitor, single point]"
2,Cc1ccc(C2Nc3cccc4cccc(c34)N2)cc1,"inconclusive: 56.2 µM [inhibitor, partial curve]"
3,CC(C)(C)c1ccc(-n2nc(C#N)c(Cl)cc2=O)cc1,active: 15.8 µM
4,COc1ccc(S(=O)(=O)NCCSCc2ccco2)cc1,"inconclusive: 89.1 µM [inhibitor, partial curve, poor fit]"
5,CC(C)(C)c1cc(CN2CCC(O)CC2)cc(C(C)(C)C)c1O,"inconclusive: 35.5 µM [inhibitor, partial curve]"
6,CC(=O)OC(/C(O)=C(\C#N)c1nc2ccccc2[nH]1)c1ccccc1 (centres undefined),inactive
7,Cc1[nH]c2ccccc2c1/C=N/NC(=S)NC(C)C,"inconclusive: 31.6 µM [inhibitor, single point]"
8,CCCCOC(=O)C1[C@H]2C(=O)N(Cc3cccs3)C[C@]23C=C[C@H]1O3 (some centres undefined),"inconclusive: 20 µM [inhibitor, partial curve]"
9,COc1cccc(OC)c1C(=O)OCC(=O)NCc1ccco1,"inconclusive: 35.5 µM [inhibitor, partial curve]"
10,Cn1ccnc1SCC(=O)c1cc2ccccc2o1,"inconclusive: 56.2 µM [inhibitor, partial curve]"
11,CCn1nc([N+](=O)[O-])c(C(C#N)c2nc3ccccc3n2C)c(Cl)c1=O (centres undefined),"inconclusive: 6.31 µM [inhibitor, full curve, poor fit]"
12,CCOc1ccc(C(=O)NC(C(=O)NCC(c2cccs2)N(C)C)C(C)C)cc1 (centres undefined),"inconclusive: 79.4 µM [inhibitor, partial curve, poor fit]"
13,CCC(=O)N1CCc2cc(Br)cc(S(=O)(=O)N3CCN(c4cccc(Cl)c4)CC3)c21,inactive
14,Cc1nc(NC(=S)Nc2ccccc2)sc1C,"inconclusive: 3.16 µM [inhibitor, full curve, poor fit]"
15,CCC(C)Sc1cccc(-c2nc3cc(C)ccn3c2NCc2ccccc2)c1 (centres undefined),inactive
16,O=c1cc(N2CCC3(CC2)OCCO3)[nH]c(=O)n1-c1ccc(Br)cc1,"inconclusive: 12.6 µM [inhibitor, partial curve, poor fit]"
17,CC(=NNC(=S)N(Cc1ccccn1)Cc1ccccn1)c1cnccn1,"inconclusive: 2.82 µM [inhibitor, full curve]"
18,O=C(Cn1cnc2sc3c(c2c1=O)CCCC3)NCC(=O)Nc1c(F)cc(F)cc1Br,inactive
19,Cc1ccn2c(-c3csc(NCc4ccccc4)n3)c(C)nc2c1,inactive
20,COc1cc(/C=C2/C(=O)N(c3ccc([N+](=O)[O-])cc3)N=C2N2CCOCC2)ccc1O,"inconclusive: 89.1 µM [inhibitor, single point]"
21,CCN(CC(=O)Nc1ccccc1C(F)(F)F)C(=O)C1CC(=O)N(Cc2ccccc2)C1 (centres undefined),inactive
22,COc1ccc(C2=NN(c3ccccc3)C(=O)/C2=C\c2ccc(O)c(OC)c2)cc1,"inconclusive: 89.1 µM [inhibitor, single point]"

row,SMILES,Potency
1,CC(CCc1ccco1)NC(=O)c1cc2c(-c3ccccc3F)nn(C)c2s1 (centres undefined),inactive
2,COc1ccc(OC)c(C(=O)c2nc3c(n2O)CCCCC3)c1,"inconclusive: 79.4 µM [inhibitor, single point]"
3,CN(C)Cc1c(C(=O)N/N=C/c2ccccc2OCc2c(F)cccc2Cl)nnn1-c1nonc1N,inactive
4,COc1ccc(NS(=O)(=O)NC(=O)c2c(C)n(C)c3ccccc23)cc1,"inconclusive: 79.4 µM [inhibitor, partial curve, poor fit]"
5,COC(=O)c1cc(NC(=S)Nc2cc(Cl)cc(Cl)c2)cc(C(=O)OC)c1,"inconclusive: 28.2 µM [inhibitor, partial curve]"
6,CN(CCO)S(=O)(=O)c1ccc2c(c1)C(=NNC(N)=O)c1cc(S(=O)(=O)N(C)CCO)ccc1-2,"inconclusive: 100 µM [inhibitor, partial curve, poor fit]"
7,Cc1nn(CCC(=O)NNC(=S)Nc2cccc(Cl)c2)c(C)c1[N+](=O)[O-],"inconclusive: 15.8 µM [inhibitor, partial curve]"
8,COc1ccc(S(=O)(=O)n2ccc(C(C)Oc3ccc(-c4ccccc4)c(F)c3)n2)cc1 (centres undefined),inactive
9,CN1C(=O)NC2(O)C(=O)c3ccccc3C12O (centres undefined),inactive
10,O=C(NC1CCN(Cc2ccccc2)CC1)c1cccc(NS(=O)(=O)c2ccc(Br)cc2)c1,inactive
11,CCCCC1C(=O)N(c2ccccc2)N(c2ccc(O)cc2)C1=O (centres undefined),active: 7.94 µM
12,C/C(=C(/NC(=O)c1ccccc1)C(=O)O)c1ccco1,"inconclusive: 50.1 µM [inhibitor, partial curve]"
13,COc1ccc(-n2c(-c3cccc(OC)c3)nc(=S)c3c2CCCC3)cc1,"inconclusive: 22.4 µM [inhibitor, partial curve]"
14,COCCNC(=S)N/N=C(\C)c1ccc(-n2ccnc2)cc1,"inconclusive: 11.2 µM [inhibitor, full curve, poor fit]"
15,O=C(Cn1nc2ccccc2n1)N/N=C/c1ccc(F)cc1,inactive
16,N#C/C(=N\Nc1ccc(S(=O)(=O)N2CCc3ccccc32)cc1)C(N)=S,"inconclusive: 35.5 µM [inhibitor, single point]"
17,CC1CN(c2ccc(Cl)cc2[N+](=O)[O-])CCN1S(C)(=O)=O (centres undefined),inactive
18,CCCOc1cccc(C2/C(=C(/O)c3ccc(F)cc3)C(=O)C(=O)N2CCN(C)C)c1 (centres undefined),"inconclusive: 63.1 µM [inhibitor, partial curve, poor fit]"
19,Cc1c(Cl)cccc1N=Cc1ccc([N+](=O)[O-])s1,"inconclusive: 56.2 µM [inhibitor, single point]"
20,Cc1ccc(-n2nnnc2CNC(=O)c2ccc([N+](=O)[O-])o2)cc1C,"inconclusive: 70.8 µM [inhibitor, partial curve, poor fit]"

# Source: PubChem BioAssay AID588453 (National Center for Advancing Translational Sciences (NCATS), 2011)
